The source of these data is the supplement of paper PMC12632987.

The chains are these.
B1: GBRAP_160_4184 (protein)
chain: EEEIEELIKEIKEIAEEAKKLIEGETHEQRKVIVAGAFGQIILLLSENEKISDETVDEVAKIADETIETLEKNPDLTEEEIKELIKEATEKIIEIIKKNT
B2: GBRAP_74_6515 (protein)
chain: QAALLAALRAAAEAGDARAVAALAREIIATGSLEAIEEAARIVVAFVDRHIDELSEEELELMADVLAELADKLMELGGDSEVILAVANAAYRLEKLIEER
B3: GBRAP_11_2609 (protein)
chain: KKEILKRLAELAKEAAEAVEELLEVGVDDEELLKKIKELIEKLKEEVEKHGNEADKTDIEVIVELWKLAQEDPENQEFYLEQLLAALRVFAGNYLLEIEE
B4: GBRAP_128_3577 (protein)
chain: SAAERLARARELIAAIVASDVAEARRLAEELVALLAEADEATREEIAELVLAALPQLTAEKLDVLADVARAARPRADPLTAEALADIEVEALNEREELEE
B5: GBRAP_128_3189 (protein)
chain: SVEEVRAWTTAAMEAIKNSDAETARAIAEALFDRLKTLSVEEVEAAVAVILEQLPQLTAEQLEILADVARERRPEFDPEKANLVAEVEVEALNLLEELEE
B6: GBRAP_184_5352 (protein)
chain: MVRDVVIKADTVDEAIAKLNEAVAAAKAAGEGLNLLIEVPINTVEDAKKLMAALKAGADAGVIKGVVGITNVSNDDEIIDTLVKGADEAGIKLVLALDEE
B7: GBRAP_52_6227 (protein)
chain: MRERMRALVERGVALVRAGRLEEARALAREVVETLNDEELELFIEELAEAVRAAPLEDLPAYERLVELVEEAMEEAGKDEVLIDLLESRFAAAAYERLQK
B8: GBRAP_35_5562 (protein)
chain: DSDETIAEMMVNTIDDLTEAVADIPPEQLATITAQLARATKEVIKEIKDNKENLEKLLESLEKLKAAIEARGLDDPHLRAAAEAVEEAIKEAKEAIKKAE
B9: GBRAP_160_4863 (protein)
chain: SEKLERALKIIEEAEKEALEIIEEAPASDRAAFAESEMGEAIMELVEEGLITDELEDKLMEIADKLRERLLANADASVEEHKKLVEEAFKEMKETVKKMS
B10: GBRAP_52_5942 (protein)
chain: MEEKYKAIAEKLLALGLAGDEEGLEALAREIAETLSDEEILAVAKEIAELAKTLPKEDLDAVYRIMEVLVEELEKAGRSEELIAEIEGIMAKAMYERELA
B11: GBRAP_95_7079 (protein)
chain: DEDLEEVEILAYTAIDLYDAGLKEHAAKLFKAALDEAEELGWKVKDKELFHELLKKFAELALEHFTAEEIKRAIEAAKKSGAPKELIEALEKKLKEKEAA
B12: GBRAP_45_5807 (protein)
chain: SAELQAALDAALAALDRAIAEARRLAKEDPERWAVVLARLEALRARLVANADNAEALKAIAAELDALLKEAAADPGATAELLDALLEAANAVAEAAELLK
B13: GBRAP_160_4232 (protein)
chain: SEVVKKLVEVFREEFLEALELIKGESEEERKVILDVTVGRVILEASEIEGTTDEMEEVVDEKSEELAEKLLEAKDESEEEKKKLIEEMAKELEKELKKLA
B14: GBRAP_160_4192 (protein)
chain: SEEVEKLIKEIDEIAEEAKKMIEGETHEQRKVIIEMAFGEIIMLAFESPVVSDETVDEIVKIADEVIATIDENPDLTEEEIKKLLDEAVEKIKEIIKKDA
B15: GBRAP_78_6675 (protein)
chain: KVEEELDKALEHLDKAAKILNKMNTEEALEILGKVIDVRETVWEAHEGEADLKELEEALKELKEALKEVKKIDKEEAKEAAKELEKAIEHLEKAIKLLKE
B16: GBRAP_52_5970 (protein)
chain: MRERARREAEELLELKRRGDEEGLREKAREIARTFDDEEIRLLAEALAEIVEEGDLEEAEIALEVAIVLADVLEEEGRDPRLASDLLGLVARAAYKLELK
B17: GBRAP_186_5378 (protein)
chain: EEELEEIRDEIIDELEAEGYTVIVVDDVYEFTEENKESIKRDVEAVTELAKETGKKYALVIPFKGTEEELEEAKKFIEELDKEAKAEGGTVVKLAGLVTP
B18: GBRAP_128_3464 (protein)
chain: SVEEAVKRTKELLEEVKKADLETARKLFEELAAELTTLSLEEVEAVVEVIEERLPELSAEKLEILAEVFRAALPKFDPEKRALIAEVISEALLEAEEKEE
B19: GBRAP_26_5449 (protein)
chain: MEELLEEFREKLKKLADELLDPETAALLKVEVDNIVALAEMELEEANGDLEKMLAVVDQMLKDLEQALDDLGVPEDVKKKLLEAAKEAAEKIKEALKKES
B20: GBRAP_55_6439 (protein)
chain: MTDEEIREEAIEDLSDMLKLSYEDKDTFVKLAEALAAELEPGESVTVEIELEREEDLEIALASANAAKKALEAKGYEVKIEVKKNEDGTYVLTLTITKPK
B21: GBRAP_96_7098 (protein)
chain: ELEKAKKIVKEALKALDTDEEKAKELAKELLKFPVEVIVKALVEEVKTPEEAYKLTKILLSLGDPKAEEVALEFAEESDGERSKAVIEAMKEYEKEKEAA
B22: GBRAP_128_3290 (protein)
chain: SAEERRARYRARLRAMLALSPEEFRAALLELALEAAAEGLEAVELFVEALLELAPEMTVEQLRAAAEALDEARESVDPESAALLADAADDLLLRAEELEE
B23: GBRAP_35_5619 (protein)
chain: NIDEETLELSLDVLEDAVEALEEEDAKKLAPALVKIAESFLKILEQEKKNVKNAKEYVKKAIELLKKAIEILSKYPELKEEKEKLEEIKKKLEELLKELE
B24: GBRAP_184_5342 (protein)
chain: GTIEAHIENKSLEETVKEAEKYIKEAAEKGEDLIISVDASGFSDEELVELVEKIGKIAKEEGVKNLTLGLDKAVDEETADKLIEVADKYGIKLTVALEDE
B25: GBRAP_160_4160 (protein)
chain: SEEVEELIKEINEIFEEMKKDIEGESIEQRQVIIAGYMGEIIMLLFESPVVSEEVVDFAVELEDELVATLKANPDLTLEEIKALIDEVREKILKKIKESA
B26: GBRAP_160_4254 (protein)
chain: SEEIEEIAEELREEMEEIIAEAAELTPEELAALIAGTIGSAIMELIEKGLITDEQEDELIELRDEAVETALRKEELTLEELKRRLREILEKMLEVLEKAK
B27: GBRAP_11_2834 (protein)
chain: EKEKLKELAKKAEEVAKKLEKLIESGNPSEEELKELLKLAEELLKEVKEYGDESLIKIAEIMLEEIKKAIEDPENQKEYLEHALAFARVLEGQYLLELEE
B28: GBRAP_160_4583 (protein)
chain: SAALEKAKKKVDEIGEEAKELVKGQTPEERANIVAVAGGELIMELSELPEVSDELLDEVDEIYDELVETILSNPNITEEEVKKLIEEAGEKIKKALDESF
B29: GBRAP_128_3458 (protein)
chain: STEEVVAWTRETMEKAKEASPEEARELFEELAERLLTLSLEEVEAAVEAIIERLPELSAEKLEILAEVFDEARPRFTPEKAALVAEVISEALLLAEELEE

Whole data set: some 4,500 sequences, median “median log2 fold change of GCK-ALFA target abundance (FLAG IP / Myc IP barcode read proportion)” near 0.078, cut for the lowest 2% near -0.6. The list shows a part of the results.

Chain of GABARAP, O95166 (O95166 whole entry, the tested form may be a part): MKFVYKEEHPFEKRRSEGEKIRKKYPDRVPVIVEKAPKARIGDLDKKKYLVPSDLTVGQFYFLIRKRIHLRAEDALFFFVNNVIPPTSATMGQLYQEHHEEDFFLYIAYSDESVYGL

The assay concerns the target GABARAP, O95166. Description: median log2 fold change of GCK-ALFA target abundance (FLAG IP / Myc IP barcode read proportion) (log2 ratio); each designed protein is fused to an ALFA-tag nanobody in HEK293 cells to bring the named protein to FLAG-tagged glucokinase (GCK); Myc marks an untargeted standard; higher = target protein stabilised (more abundant). Particulars: target protein: 3xFLAG-MCP-GCK-ALFA reporter; HEK293 landing pad (RPLP). An outline of the steps:
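HEK293 landing-pad cells received a recombined binder library fused to the ALFA nanobody and were induced with 2 μg mL^−1 doxycycline, then transfected with a plasmid encoding a FLAG-tagged target and a Myc-tagged standard. Lysates were collected after 48 h for anti-FLAG and anti-Myc immunoprecipitation, and the circular RNA barcodes were reverse transcribed, amplified and sequenced. Target abundance for each binder is the median log2 ratio of FLAG to Myc barcode read proportions. Barcodes had to reach a proportion of at least 10^−7 in both replicates, each binder needed at least 3 barcodes per replicate, a pseudocount of 10^−6 was applied, and the two replicates were pooled.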
As for B1, the “median log2 fold change” value was found to be 0.121.
Consider B2, for which the “median log2 fold change” value is -0.0912.
With B3, the “median log2 fold change” value was -0.173.
The figure for B4 is 0.157.
Next, B5: 0.108.
Turning to B6, the “median log2 fold change” value was found to be 0.12.
B7: the “median log2 fold change” value is 0.0801.
For B8, the “median log2 fold change” value came to 0.0426.
With B9, the “median log2 fold change” value came to 0.246.
The figure for B10 is 0.108; for B11 it is 0.0852.
The figure for B12 is 0.146; for B13 it is -0.216.
On to B14, for which the “median log2 fold change” value was -0.154.
With B15, the “median log2 fold change” value was 0.337.
For B16, the “median log2 fold change” value was -0.387.
Next, B17: 0.149; B18: 0.24.
Consider B19, for which the “median log2 fold change” value was 0.226.
Regarding B20, the “median log2 fold change” value turned out to be 0.261.
For B21, the “median log2 fold change” value came out at 0.273.
In the case of B22, the “median log2 fold change” value is -0.327.
As to B23, the “median log2 fold change” value came to 0.344.
On to B24, for which the “median log2 fold change” value was 0.256.
On to B25, for which the “median log2 fold change” value was -0.175.
B26: the “median log2 fold change” value was -0.152.
Next, B27: 0.199; B28: -0.303.
Take B29: the “median log2 fold change” value turned out to be 0.0997.
